Measured values taken from the supplement of paper PMC4604168 (melanoma cell lines).
Some of the results follow. Single values are uncertain, as repeats are few or missing.

Legend:
Assay in all cases: cell count relative to DMSO control; melanoma cells; higher = more viable cells
Conditions in all cases: library dose: standard library concentration; 72 h
G361 = system: G361
IPC-298 = system: IPC-298
IST-MEL1 = system: IST-MEL1
LB2518-MEL = system: LB2518-MEL
LOXIMVI = system: LOXIMVI
MEL-HO = system: MEL-HO
MZ2-MEL = system: MZ2-MEL
MeWo = system: MeWo
RPMI7951 = system: RPMI7951
RVH-421 = system: RVH-421
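Further: cells treated in 1,536-well plates, then fixed and DAPI-stained, with nuclei counted from automated high-throughput microscope images.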

Compound: COc1ccc(C2=N[C@@H](c3ccc(Cl)cc3)[C@@H](c3ccc(Cl)cc3)N2C(=O)N2CCNC(=O)C2)c(OC(C)C)c1 [Nutlin-3] + NCC(=O)Nc1ccc(-n2nc(C(F)(F)F)cc2-c2ccc3c(ccc4ccccc43)c2)cc1 [OSU03012] (first compound 0.5 µM, partner dose 5 µM)
- cell count (G361): 61.5%
- cell count (IPC-298): 52.9%
- cell count (IST-MEL1): 98%
- cell count (LB2518-MEL): 74.4%
- cell count (LOXIMVI): 61.4%
- cell count (MEL-HO): 80.4%
- cell count (MZ2-MEL): 97.2%
- cell count (MeWo): 81.9%
- cell count (RPMI7951): 91.4%
- cell count (RVH-421): 68.5%

Compound: Cc1cn(-c2cc(NC(=O)c3ccc(C)c(Nc4nccc(-c5cccnc5)n4)c3)cc(C(F)(F)F)c2)cn1 [nilotinib] + c1cc(-c2cnn3cc(-c4ccc(OCCN5CCCCC5)cc4)cnc23)ccn1 [Dorsomorphin] (first compound 1 µM, partner dose 2 µM)
- cell count (G361): 46.4%
- cell count (IPC-298): 82.6%
- cell count (IST-MEL1): 82.2%
- cell count (LB2518-MEL): 57.4%
- cell count (LOXIMVI): 109%
- cell count (MEL-HO): 72.2%
- cell count (MZ2-MEL): 48.8%
- cell count (MeWo): 77.6%
- cell count (RPMI7951): 84.4%
- cell count (RVH-421): 108%

Compound: Cc1cn(-c2cc(NC(=O)c3ccc(C)c(Nc4nccc(-c5cccnc5)n4)c3)cc(C(F)(F)F)c2)cn1 [nilotinib] + Cn1c(=O)n(-c2ccc(C(C)(C)C#N)cc2)c2c3cc(-c4cnc5ccccc5c4)ccc3ncc21 [NVP-BEZ235] (first compound 1 µM, partner dose 0.02 µM)
- cell count (G361): 58.7%
- cell count (IPC-298): 74%
- cell count (IST-MEL1): 70.4%
- cell count (LB2518-MEL): 76.4%
- cell count (LOXIMVI): 89.4%
- cell count (MEL-HO): 64.9%
- cell count (MZ2-MEL): 72.8%
- cell count (MeWo): 70.3%
- cell count (RPMI7951): 70.7%
- cell count (RVH-421): 88.9%

Compound: Cc1cc(Nc2cc(N3CCN(C)CC3)nc(/C=C/c3ccccc3)n2)n[nH]1 + O=C(O)C(=O)Nc1sc2c(c1C(=O)O)CCNC2 [TCS401] (first compound 0.2 µM, partner dose 8.33333 µM)
- cell count (G361): 91.8%
- cell count (IPC-298): 94%
- cell count (IST-MEL1): 101%
- cell count (LB2518-MEL): 82.7%
- cell count (LOXIMVI): 88.8%
- cell count (MEL-HO): 92.8%
- cell count (MZ2-MEL): 115%
- cell count (MeWo): 84.1%
- cell count (RPMI7951): 89.2%
- cell count (RVH-421): 83.6%

Compound: Cn1c(=O)n(-c2ccc(C(C)(C)C#N)cc2)c2c3cc(-c4cnc5ccccc5c4)ccc3ncc21 + C#Cc1cccc(Nc2ncnc3cc(OCCOC)c(OCCOC)cc23)c1 [erlotinib] (first compound 0.02 µM, partner dose 4 µM)
- cell count (G361): 48.9%
- cell count (IPC-298): 51.6%
- cell count (IST-MEL1): 76.1%
- cell count (LB2518-MEL): 69.6%
- cell count (LOXIMVI): 71.5%
- cell count (MEL-HO): 56.4%
- cell count (MZ2-MEL): 63%
- cell count (MeWo): 58.4%
- cell count (RPMI7951): 51.8%
- cell count (RVH-421): 72.4%

Compound: CC(C)C[C@H](NC(=O)[C@H](Cc1ccccc1)NC(=O)c1cnccn1)B(O)O [Bortezomib] + Cc1cc(N2CCOCC2)cc2[nH]c(-c3c(NC[C@@H](O)c4cccc(Cl)c4)cc[nH]c3=O)nc12 [BMS536924] (first compound 0.005 µM, partner dose 1 µM)
- cell count (G361): 0.722%
- cell count (IPC-298): 20.1%
- cell count (IST-MEL1): 17.3%
- cell count (LB2518-MEL): 3.82%
- cell count (LOXIMVI): 16.7%
- cell count (MEL-HO): 37.4%
- cell count (MZ2-MEL): 6.2%
- cell count (MeWo): 15.3%
- cell count (RPMI7951): 3.51%
- cell count (RVH-421): 5.2%

Compound: Cn1c(=O)n(-c2ccc(C(C)(C)C#N)cc2)c2c3cc(-c4cnc5ccccc5c4)ccc3ncc21 + Cc1cc(N2CCOCC2)cc2[nH]c(-c3c(NC[C@@H](O)c4cccc(Cl)c4)cc[nH]c3=O)nc12 [BMS536924] (first compound 0.02 µM, partner dose 1 µM)
- cell count (G361): 51.3%
- cell count (IPC-298): 74%
- cell count (IST-MEL1): 72.9%
- cell count (LB2518-MEL): 71.1%
- cell count (LOXIMVI): 72.6%
- cell count (MEL-HO): 68.5%
- cell count (MZ2-MEL): 88.6%
- cell count (MeWo): 57.1%
- cell count (RPMI7951): 72.9%
- cell count (RVH-421): 81.7%

Compound: COc1ccc(C2=N[C@@H](c3ccc(Cl)cc3)[C@@H](c3ccc(Cl)cc3)N2C(=O)N2CCNC(=O)C2)c(OC(C)C)c1 [Nutlin-3] + O=C1NC(=O)/C(=C/c2ccc(-c3ccc(F)cc3O)o2)S1 [AS252424] (first compound 0.5 µM, partner dose 5 µM)
- cell count (G361): 68.5%
- cell count (IPC-298): 87.1%
- cell count (IST-MEL1): 109%
- cell count (LB2518-MEL): 73.8%
- cell count (LOXIMVI): 74.8%
- cell count (MEL-HO): 81.6%
- cell count (MZ2-MEL): 106%
- cell count (MeWo): 94.7%
- cell count (RPMI7951): 105%
- cell count (RVH-421): 83.1%

Compound: CC(C)C[C@H](NC(=O)[C@H](Cc1ccccc1)NC(=O)c1cnccn1)B(O)O [Bortezomib] + C[C@]1(c2nc3c(C(N)=O)cccc3[nH]2)CCCN1 [Veliparib] (first compound 0.005 µM, partner dose 7 µM)
- cell count (G361): 1.37%
- cell count (IPC-298): 13.6%
- cell count (IST-MEL1): 12%
- cell count (LB2518-MEL): 2.37%
- cell count (LOXIMVI): 31.6%
- cell count (MEL-HO): 30.3%
- cell count (MZ2-MEL): 6.09%
- cell count (MeWo): 22.4%
- cell count (RPMI7951): 5.14%
- cell count (RVH-421): 17%

Compound: COc1ccc(C2=N[C@@H](c3ccc(Cl)cc3)[C@@H](c3ccc(Cl)cc3)N2C(=O)N2CCNC(=O)C2)c(OC(C)C)c1 [Nutlin-3] + C=C(c1ccc(C(=O)O)cc1)c1cc2c(cc1C)C(C)(C)CCC2(C)C [Bexarotene] (first compound 0.5 µM, partner dose 10 µM)
- cell count (G361): 57.6%
- cell count (IPC-298): 74.1%
- cell count (IST-MEL1): 85.1%
- cell count (LB2518-MEL): 92.3%
- cell count (LOXIMVI): 66%
- cell count (MEL-HO): 74.4%
- cell count (MZ2-MEL): 80.3%
- cell count (MeWo): 74.1%
- cell count (RPMI7951): 98.9%
- cell count (RVH-421): 59.1%
